Reference: the BET-seq Pho4 binding data (Le et al. 2018)
The other results are listed elsewhere or left out. Values were computed here from the reads of four pooled replicates and scatter widely.

biological target: T1, Pho4 (S. cerevisiae) (UniProt P07270); test: relative binding free energy (BET-seq); higher = weaker binding; conditions: reference: library average
T1 sequence: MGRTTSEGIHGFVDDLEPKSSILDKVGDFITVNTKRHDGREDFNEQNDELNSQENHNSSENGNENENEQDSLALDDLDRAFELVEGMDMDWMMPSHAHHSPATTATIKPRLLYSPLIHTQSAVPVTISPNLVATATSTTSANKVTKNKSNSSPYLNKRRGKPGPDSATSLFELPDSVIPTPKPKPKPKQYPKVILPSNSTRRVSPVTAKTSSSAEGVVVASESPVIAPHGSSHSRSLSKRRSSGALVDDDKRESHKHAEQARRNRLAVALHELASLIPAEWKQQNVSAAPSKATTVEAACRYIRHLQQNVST

Sequence	relative binding free energy [kcal/mol]
TGTGGCACGTGATCTT	-0.01
TTGGGCACGTGCCTGT	-0.19
GATGTCACGTGGCGTT	0.21
GTTGACACGTGGGGAC	-0.07
GAGATCACGTGTGATG	0.29
GATTTCACGTGTGGGA	0.3
TAAAACACGTGGTGTA	0.02
TGGGCCACGTGGAGAG	-0.07
TAAGACACGTGAGGTT	0.41
TTGACCACGTGTTTTG	-0.08
ACTAGCACGTGGTGTG	-0.08
CGGTGCACGTGTAGGT	-0.14
ATAATCACGTGAGGCT	0.25
AGGGGCACGTGTGCTA	-0.12
CGAGACACGTGAAGTG	0.32
ACGTGCACGTGTGGTG	-0.01
AGTTTCACGTGGAGCC	0.39
TAGCGCACGTGGGGCT	-0.36
TTATCCACGTGGTTTT	0.09
GCAGTCACGTGCGTGG	0.02
AGTGTCACGTGGTACT	-0.14
AAGAGCACGTGGTTGT	-0.21
TTTTTCACGTGAGCTT	0.31
CTGGTCACGTGTCTGT	0.2
AATCTCACGTGATTTG	0.47

Sequence	relative binding free energy [kcal/mol]
GTTTGCACGTGGCATG	0.07
TATAACACGTGGGGCA	0.03
ATTAACACGTGTTAAG	-0.01
TTAGACACGTGTGGGC	0.15
CATTGCACGTGGCTGG	-0.01
GGGGCCACGTGTCGGC	0.09
TGGTACACGTGAGTAT	0.35
GGGGACACGTGCTTTG	0.04
AGGTGCACGTGGAGCT	-0.07
GTAATCACGTGGTAGG	0.23
GGCTACACGTGTTAGG	0.09
ACTTTCACGTGATAGG	0.28
TATATCACGTGGGTTC	0.09
GGCGTCACGTGGGGGG	-0.01
GAAGGCACGTGTGGGC	-0.14
AAATTCACGTGTTGGT	0.27
TGAGGCACGTGTGGTC	-0.03
GGGAGCACGTGATTGG	0.15
GGAAACACGTGATGGT	0.27
TTGAACACGTGGTGGG	0
AGTTTCACGTGATTAG	0.18
AGTTACACGTGCTTTG	0.14
TCTCTCACGTGTTAGT	0.34
TTTGGCACGTGTGTGG	-0.02
TAGTACACGTGTGGCA	0.07

Sequence	relative binding free energy [kcal/mol]
AGAGTCACGTGTATCG	0.27
ATTGTCACGTGGGTTA	-0.02
TCGTTCACGTGAGGTA	0.44
GGTTACACGTGTGGTG	0.25
TGTGTCACGTGTCACG	0.11
TGGGTCACGTGCGTTA	-0.07
TGTTTCACGTGGCCTT	0.08
CGGGGCACGTGGTGAC	-0.25
AGTCTCACGTGCTTGG	0.27
ATCTACACGTGTGGTT	0.14
GGGGGCACGTGCGTTA	-0.18
TGTATCACGTGCTTTT	-0.07
AGTTTCACGTGTTATT	0.31
TGTGACACGTGAACGT	0.2
TAGGGCACGTGGCATT	-0.1
TTGCGCACGTGTTGGG	-0.04
TAGTTCACGTGCCAGG	0.24
TGATACACGTGAGGGC	0.43
ATGTGCACGTGAGCTG	-0.1
TGGGCCACGTGAGCGG	-0.01
TTTTACACGTGGAAGG	0.2
GAGGTCACGTGGTACT	0.19
TCTGGCACGTGTATGA	-0.06
GTTGGCACGTGGAGGT	-0.03
AAGGTCACGTGGGGTA	-0.1

Sequence	relative binding free energy [kcal/mol]
AGGGTCACGTGGTCTT	0.02
TTGTCCACGTGTAGTT	0.16
TTATTCACGTGTTCTG	0.27
TTGAACACGTGATGAG	0.09
GGTCTCACGTGTCGTT	0.25
GGGGACACGTGCAGCG	-0.01
GCATGCACGTGCGGTG	-0.1
TAGGGCACGTGGAAAT	0.02
AGATTCACGTGATGGT	0.35
AGGGTCACGTGAAGGA	0.34
TTAAACACGTGGGGCT	-0.12
AGTGTCACGTGTAATG	0.14
TGTCTCACGTGGGGTT	0.18
CTTTTCACGTGGTTGT	0.23
TTTTCCACGTGGGAGA	-0.04
GGGCTCACGTGATGTT	0.29
GTGTACACGTGTTTAG	0.15
CATGACACGTGTTAGT	-0.01
GCGGACACGTGGGATG	-0.04
CTTAACACGTGTGGTT	-0.03
GGTGGCACGTGGAACG	0.12
CTGTTCACGTGTTGAA	0.2
GTAGACACGTGAGTAG	0.1
ATAAGCACGTGAAGGA	0.25
AAGTGCACGTGCGAGG	0.01

Sequence	relative binding free energy [kcal/mol]
TGATTCACGTGATTTT	0.3
TCTTTCACGTGGGGCA	0.16
TGTATCACGTGTAGGA	0.15
TACGGCACGTGTAAGT	0.01
AGTGGCACGTGAATTG	0.17
TTAGGCACGTGGCCAG	-0.14
ATAAGCACGTGTGTTT	-0.12
GGTTCCACGTGTTGAG	0.15
GGCTCCACGTGGTGGT	0.04
GGCGTCACGTGCTGGT	0.02
AGGGCCACGTGGAATG	-0.1
GTTAGCACGTGGGCGA	0
GTTAGCACGTGCTTTG	-0.06
TTTAGCACGTGTTTTA	0.07
GGGAACACGTGCGGGT	0.02
TTTGTCACGTGGTGGC	0.26
TTCGACACGTGTTATT	-0.08
GCTGGCACGTGGATTG	0.05
TAGGGCACGTGGGCCG	-0.26
TAATTCACGTGATAGA	0.12
TGATTCACGTGGTCGT	0.22
GGTTGCACGTGGTTTG	0.06
CGATACACGTGTGTGG	0.08
GTTAGCACGTGGGGTG	-0.17
AAATTCACGTGTGTAA	0.29

Sequence	relative binding free energy [kcal/mol]
AGTTGCACGTGACTGG	-0.01
TGGAGCACGTGTAGGG	-0.04
TTCTGCACGTGTAAAG	0.2
TAAAACACGTGGTTTA	-0.08
TGTCACACGTGTTGTG	0.05
GTGTGCACGTGCGAAT	-0.14
AAGTTCACGTGTTATT	0.29
GAGGACACGTGTTTAG	0.07
GCGTGCACGTGAGTAG	0.36
CTTGTCACGTGTGGGC	0.17
CGTGGCACGTGGCAAG	-0.21
ATTAGCACGTGCGTAG	-0.12
GTGCTCACGTGAAGGG	0.41
ATATTCACGTGGAAAG	0.19
AACGTCACGTGTGTAG	0.05
TAGATCACGTGATTGT	0.27
TTCATCACGTGTTTAG	0.15
TTTATCACGTGACTGG	0.32
TATATCACGTGGTCGT	0
GGAGCCACGTGTAGGG	-0.07
TGTTGCACGTGGAGTG	0.1
